Reference: patent publication US20190194334A1 (MUSC FOUNDATION FOR RESEARCH DEVELOPMENT, published 2019)

Biological target: cell surface (plasma membrane) nucleolin of human tumor cells (human, UniProt P19338)
Assay: cell-based or functional assay

Sequence of UniProt P19338 (P19338 2-710 limits assumed): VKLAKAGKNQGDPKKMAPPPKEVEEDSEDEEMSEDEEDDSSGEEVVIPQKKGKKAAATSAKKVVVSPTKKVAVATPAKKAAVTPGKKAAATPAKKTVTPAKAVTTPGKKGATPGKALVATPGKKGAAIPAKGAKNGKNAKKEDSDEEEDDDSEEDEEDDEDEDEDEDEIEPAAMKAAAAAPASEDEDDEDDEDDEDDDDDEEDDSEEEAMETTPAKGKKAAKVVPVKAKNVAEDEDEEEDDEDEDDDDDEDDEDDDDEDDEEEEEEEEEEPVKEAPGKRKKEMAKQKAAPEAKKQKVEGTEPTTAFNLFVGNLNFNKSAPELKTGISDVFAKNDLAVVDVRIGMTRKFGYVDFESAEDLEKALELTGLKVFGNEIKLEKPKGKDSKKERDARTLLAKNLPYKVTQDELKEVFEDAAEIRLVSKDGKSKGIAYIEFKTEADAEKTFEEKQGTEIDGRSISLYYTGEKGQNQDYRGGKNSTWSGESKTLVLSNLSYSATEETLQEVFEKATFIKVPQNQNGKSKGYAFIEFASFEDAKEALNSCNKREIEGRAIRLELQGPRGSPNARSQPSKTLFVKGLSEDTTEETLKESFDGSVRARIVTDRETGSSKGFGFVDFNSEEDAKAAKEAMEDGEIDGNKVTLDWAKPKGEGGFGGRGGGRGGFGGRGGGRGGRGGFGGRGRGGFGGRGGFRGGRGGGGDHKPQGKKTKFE

B1: antibody CP1 (purified from human B cells) (antibody, human IgG1, kappa)
heavy: QVQLQESGPGLVKPSQTLSLTCTVSGGSINSGGFYWSWIRQHPGKGLEWIGYISYTGSTYYNPSLKSRVNISADTSKNRFSLKLSSVTAADTAVYYCARDMNDGLQIWGQGTLVTVSA[letters of human IgG1 constant region left out]
light: [letters of about 100 residues left out][letters of about 120 residues left out]
notes: also called CP1M4.2
Q: Which “IC50, viability of human MV4-11 AML cells (trypan blue counting, 96 h)” value does the source give for B1 here?
A: 0.4 µg/mL
